# From PubChem BioAssay AID1460 (National Center for Advancing Translational Sciences (NCATS), 2008)
# Where “and” joins values, the source holds several entries; their conditions need not be identical. Equal values may be shown once. Screen size: about 270,000 compounds; about 5,800 (2.1%) were called active. The shares of active, inactive and inconclusive entries below differ from those in the screen. Calls come from the whole dose curve; as a rule, active = well fitted inhibition curve with a large enough effect; inconclusive = small, poorly fitted or top-dose-only effect; inactive = flat fitted curve, though single readings scatter. Potencies beside an inconclusive call are fits to weak or partial responses and may not hold up.
# Target: Microtubule-associated protein tau (Homo sapiens) (UniProt P10636)
# Assay: qHTS for Inhibitors of Tau Fibril Formation, Thioflavin T Binding; note: nearly all actives have a fitted effect of over 55% in size
# Settings: recombinant tau K18 P301L (four-repeat tau fragment), heparin-induced fibrillization, ThT fluorescence; series mostly up to 57.4 µM; activity, negative = inhibition: at the top concentration
# Summary of the method: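 Recombinant human tau K18 fragment […] carrying P301L, 15 uM unlabeled plus 0.24 uM Alexa 594-labeled, was fibrillized with 20 uM heparin in 100 mM sodium acetate pH 7 for 6 hr at 37 C; 30 uM ThT fluorescence read after 1 hr.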
# % is set by controls: 0 for no effect and ±100 for the full control effect; potency is the fitted concentration of half-maximal effect; tags give direction and shape of the fitted curve.
# Chain of UniProt P10636 (P10636 whole entry, looked up): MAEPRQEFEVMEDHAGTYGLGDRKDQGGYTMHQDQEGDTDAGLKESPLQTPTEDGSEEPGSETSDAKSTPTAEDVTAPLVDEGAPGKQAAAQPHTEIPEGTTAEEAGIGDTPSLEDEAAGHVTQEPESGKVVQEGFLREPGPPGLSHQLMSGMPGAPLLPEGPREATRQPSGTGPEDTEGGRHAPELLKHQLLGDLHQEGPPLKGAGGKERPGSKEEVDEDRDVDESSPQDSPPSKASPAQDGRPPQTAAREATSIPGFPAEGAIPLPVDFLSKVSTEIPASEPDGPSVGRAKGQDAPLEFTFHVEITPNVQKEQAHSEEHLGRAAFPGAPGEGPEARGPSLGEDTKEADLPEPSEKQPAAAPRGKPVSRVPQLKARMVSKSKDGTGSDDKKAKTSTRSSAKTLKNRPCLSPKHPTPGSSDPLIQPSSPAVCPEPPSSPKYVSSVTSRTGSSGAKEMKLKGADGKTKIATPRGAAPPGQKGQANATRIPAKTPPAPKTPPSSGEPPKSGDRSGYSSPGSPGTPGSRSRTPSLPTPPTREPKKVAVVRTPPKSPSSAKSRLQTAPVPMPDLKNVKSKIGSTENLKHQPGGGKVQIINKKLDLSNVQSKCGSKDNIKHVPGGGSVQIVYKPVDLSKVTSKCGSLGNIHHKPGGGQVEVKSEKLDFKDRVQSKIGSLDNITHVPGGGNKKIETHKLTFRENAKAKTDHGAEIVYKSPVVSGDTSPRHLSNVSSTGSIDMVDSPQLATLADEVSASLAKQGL
SMILES,"activity, negative = inhibition",Potency
COc1ccccc1NC(=O)CCNS(=O)(=O)c1ccc2c(c1)CCN2C(=O)C1CC1,inactive: 8.63%,
COC(=O)c1ccc(-n2nnc(-c3nsc(NC(=O)c4ccc(Cl)cc4)n3)c2C)cc1,,"inconclusive: 0.794 µM [inhibitor, full curve]"
Cc1ccc2c(c1)C(=NC1CCCCC1)c1cc3ccccc3nc1-2,,"inconclusive: 6.31 µM [inhibitor, partial curve, poor fit]"
CC(=O)OCC1=C(C(=O)O)N2C(=O)C(NC(=O)CCn3nc(C(F)(F)F)c(Br)c3C3CC3)C2SC1 (stereo unspecified),,"inconclusive: 31.6 µM [inhibitor, single point]"
CCN(CC)C(=O)c1sc2c(c1C)c(=O)n(Cc1ccccc1)c(=O)n2CC(=O)Nc1ccc(OC)cc1,inactive: 19.5%,
Cc1ccc(C)c(NC(=O)C(=O)NCCc2c[nH]c3ccccc23)c1,inactive: -14.5%,
Cc1cc(C)c(NC(=S)NC(NC(=O)c2ccccc2)C(Cl)(Cl)Cl)c(C)c1 (stereo unspecified),inactive: 2.94%,
CCOC(=O)C(C)On1c(-c2ccccc2)nc2ccc([N+](=O)[O-])cc21 (stereo unspecified),,"inconclusive: 8.91 µM [inhibitor, partial curve]"
O=C1C=C(c2ccccc2)C[C@H](c2cccs2)[C@H]1n1cnc([N+](=O)[O-])c1,inactive: -10.8%,
CN1C(=O)[C@@H]2[C@@H]3C[C@@H]([C@H]4ON=C(c5ccccc5OCC#N)[C@@H]34)[C@@H]2C1=O,,"inconclusive: 31.6 µM [inhibitor, single point]"
Cc1nc(-c2ccc(Cl)cc2)sc1C(=O)CBr,,"inconclusive: 15.8 µM [inhibitor, partial curve]"
CC1CN(c2ccc(Oc3ccccc3)cc2)c2nc3c(c(=O)[nH]c(=O)n3C)n2C1 (stereo unspecified),inactive: 1.95%,
O=C(c1ccc(-c2ccccc2)cc1)C1CCCN(C(=O)c2cncs2)C1 (stereo unspecified),,"inconclusive: 11.2 µM [inhibitor, partial curve, poor fit]"
COCCCNC(=O)C1CCN(C(=O)c2ccc(-n3ccc4ccccc43)s2)CC1,inactive: -0.657%,
CC(=O)O[C@@]1(C(C)=O)CCC2C3C=C(Cl)C4=CC(=O)CC[C@]4(C)C3CC[C@]21C (stereo partly specified),inactive: -12.5%,
O=C(Nc1ccc(O)c(-c2nc3ccccc3o2)c1)c1ccc(-c2cccc(Cl)c2)o1,,"inconclusive: 1.58 µM [inhibitor, partial curve]"
CCOc1ccc2c(C)nc(NC3=NC(C)(C)C=C(C)N3)nc2c1,,"inconclusive: 15.8 µM [inhibitor, partial curve]"
COCCn1c(SCC(=O)N2CCCc3ccccc32)nc2c(c1=O)SC(C)C2 (stereo unspecified),inactive: 4.82%,
O=C(N/N=C/C=C\c1ccc([N+](=O)[O-])cc1)c1cccnc1,,"inconclusive: 3.55 µM [inhibitor, partial curve]"
CC1CCN(S(=O)(=O)c2ccc3c(c2)oc(=O)n3CC(=O)N2CCCCC2)CC1,inactive: -0.735%,
CCOc1ccc(Nc2nc(N)nc(CCl)n2)cc1,,"inconclusive: 7.94 µM [inhibitor, full curve, poor fit]"

SMILES,"activity, negative = inhibition",Potency
Cc1ccc(OCC(=O)Nc2ccc(N3CCOCC3)cc2)cc1,,"inconclusive: 10 µM [inhibitor, partial curve]"
Cc1ccc2[nH]c3c(=O)n(CC(=O)NCCCN4CCN(c5ccc(F)cc5)CC4)ncc3c2c1,,"inconclusive: 17.8 µM [inhibitor, single point]"
Nc1nnc(SCc2coc(-c3ccc(Cl)cc3)n2)s1,,"inconclusive: 3.16 µM [inhibitor, full curve, poor fit]"
O=C(CNc1cccc2ccccc12)N/N=C/C=C/c1ccco1,,"inconclusive: 12.6 µM [inhibitor, partial curve]"
COCCNC(=O)C1c2ccccc2C(=O)N(CCOC)C1c1ccc(F)cc1 (stereo unspecified),,"inconclusive: 22.4 µM [inhibitor, partial curve, poor fit]"
CC(=O)Nc1cccc(N=NN2CCOCC2)c1,,"inconclusive: 31.6 µM [inhibitor, partial curve]"
CCOC(=O)c1c(NC(=O)CN2C(=O)NC(C)(c3ccc(Cl)cc3)C2=O)sc(C(=O)NC)c1C (stereo unspecified),,"inconclusive: 39.8 µM [inhibitor, single point]"
CC(=O)Oc1ccc(C(=O)[C@H]2[C@H]3C(=O)N(c4cccc5ccccc45)C(=O)[C@H]3[C@@H]3C=CC=NN32)cc1,,"inconclusive: 14.1 µM [inhibitor, partial curve]"
C/C(=N\NC(=S)Nc1ccc(C)cc1)c1cccc(N)c1,,"inconclusive: 12.6 µM [inhibitor, partial curve]"
CC(O)[C@H]1CNC(=O)C(=O)N1CCc1cccc2ccccc12 (stereo partly specified),,"inconclusive: 2.82 µM [activator, partial curve, poor fit]"
COc1ccc(NC(=O)c2ccco2)cc1NC(=O)COc1cc(C)ccc1C(C)C,,"inconclusive: 8.91 µM [inhibitor, single point]"
CCCCn1c(NS(=O)(=O)c2ccccc2)c(S(=O)(=O)c2ccc(C)cc2)c2nc3ccccc3nc21,,"inconclusive: 12.6 µM [inhibitor, partial curve]"
Cc1ccc(Cn2ccsc2=NC(=O)CCl)cc1,inactive: -2.82%,
COc1ccc(-c2ccc(-c3noc(-c4ccc(OC)c(OC)c4)n3)c(OC)n2)cc1,,"inconclusive: 2.24 µM [inhibitor, full curve]"
c1ccc(-c2nnc(SCC3CCCO3)nc2-c2ccccc2)cc1 (stereo unspecified),,"inconclusive: 39.8 µM [inhibitor, single point]"
COc1ccc(N2CCN(C(c3cccc(OC)c3OC)c3nnnn3C3CCCC3)CC2)cc1 (stereo unspecified),,"inconclusive: 22.4 µM [inhibitor, partial curve, poor fit]"
Cc1ccccc1Nc1c(-c2ccc(O)cc2)nc2c(C)cccn12,,"inconclusive: 39.8 µM [inhibitor, single point]"
Cc1c(NC(=O)CSc2n[nH]c(-c3ccccc3)n2)c(=O)n(-c2ccccc2)n1C,inactive: -14.2%,
CC(/C=C/c1ccco1)=N/NC(=O)CNc1ccccc1C,,"inconclusive: 15.8 µM [inhibitor, partial curve, poor fit]"
Cc1cc(O)c2c(c1)C(=O)c1cccc(O)c1C2=O,,"inconclusive: 3.16 µM [inhibitor, partial curve] and inconclusive: 2.82 µM [inhibitor, full curve] and inconclusive: 2.24 µM [inhibitor, full curve]"
